# Data reported in the supplement of paper PMC12645437, “Orthogonal IMiD-Degron Pairs Induce Selective Protein Degradation in Cells” (ACS Chemical Biology, 2025).
# This is one part of the list.
# Target: no compound (DMSO)
# Experiment: log2 fold change of degron read counts, EGFP-low vs EGFP+ sorted cells; higher = lower degron-EGFP level without compound (poor expression or instability)
# Conditions: compound: DMSO control; 18 h
# 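Further: jurkat cells carrying a lentiviral library of mutant zinc finger degrons fused to EGFP plus mCherry, mCherry+ cells FACS sorted, degron abundance counted by next-generation sequencing.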
row,Sequence,log2 fold change of degron read counts
1,FYCPQCGAHFTQKGNLLRHIKL,0.267
2,FYCEICGHPFTQKGNLLRHIKL,-0.549
3,LECEICGFPCTQKGNLLRHIKL,-0.00219
4,FKCPVCGACFTQKGNLLRHIKL,-0.595
5,FHCEQCGANFTQKGNLLRHIKL,-1.49
6,FGCEQCGAQFTQKGNLLRHIKL,-2.75
7,FACEQCGALFTQKGNLLRHIKL,-1.95
8,FWCPICGHTFTQKGNLLRHIKL,0.36
9,FGCEVCGAGFTQKGNLLRHIKL,-0.968
10,FHCEVCGAWFTQKGNLLRHIKL,-0.607
11,FVCNQCGHEFTQKGNLLRHIKL,-1.23
12,FMCSVCGHFFTQKGNLLRHIKL,0.468
13,LGCEICGFECTQKGNLLRHIKL,-0.142
14,LECPICGFWCTQKGNLLRHIKL,0.806
15,FFCEVCGAEFTQKGNLLRHIKL,-0.977
16,FACDICGAFFTQKGNLLRHIKL,-0.372

row,Sequence,log2 fold change of degron read counts
1,FICPQCGAWFTQKGNLLRHIKL,0.912
2,FNCEICGHDFTQKGNLLRHIKL,-1.41
3,FACEICGRNFTQKGNLLRHIKL,-2.11
4,FVCPICGRNFTQKGNLLRHIKL,-0.363
5,FKCSVCGHSFTQKGNLLRHIKL,-0.389
6,LACPICGFFCTQKGNLLRHIKL,1.6
7,FRCNVCGAEFTQKGNLLRHIKL,-1.03
8,LACEICGFLCTQKGNLLRHIKL,0.498
9,FHCPICGHYFTQKGNLLRHIKL,0.461
10,FKCDICGANFTQKGNLLRHIKL,-2.05
11,FFCNICGAIFTQKGNLLRHIKL,1.31
12,FCCDQCGAVFTQKGNLLRHIKL,-1.07
13,FLCNQCGHTFTQKGNLLRHIKL,-0.379
14,FSCNQCGAAFTQKGNLLRHIKL,-0.767
15,FICNQCGAKFTQKGNLLRHIKL,-0.501
16,FECNICGATFTQKGNLLRHIKL,-1.18
